Results are given in words; binding and its absence hold for the method and conditions named. For some assays here: In cells and extracts the contact can be indirect. Some entries that bind do so weakly or less than the wild type. For some assays here: Sequences can lack the tags named with a protein. One block for each substance: values may come before it.
What was measured:
[1] = target: HA-TRIM21 (WT, in 293T cells) (UniProt P19474); assay: co-IP; co-expression in 293T cells; IP with a HA antibody, immunoblotting with FLAG and HA antibodies (Figure 3I; Figure S4B for the TRIM21 truncation mutants)
[2] = target: T1, Flag-TIF1γ (full-length, in 293T cells) (UniProt Q9UPN9); assay: co-IP; 293T cells co-transfected with Flag-TIF1γ and HA-TRIM21, or their truncation mutants, for 48 h
T1 sequence: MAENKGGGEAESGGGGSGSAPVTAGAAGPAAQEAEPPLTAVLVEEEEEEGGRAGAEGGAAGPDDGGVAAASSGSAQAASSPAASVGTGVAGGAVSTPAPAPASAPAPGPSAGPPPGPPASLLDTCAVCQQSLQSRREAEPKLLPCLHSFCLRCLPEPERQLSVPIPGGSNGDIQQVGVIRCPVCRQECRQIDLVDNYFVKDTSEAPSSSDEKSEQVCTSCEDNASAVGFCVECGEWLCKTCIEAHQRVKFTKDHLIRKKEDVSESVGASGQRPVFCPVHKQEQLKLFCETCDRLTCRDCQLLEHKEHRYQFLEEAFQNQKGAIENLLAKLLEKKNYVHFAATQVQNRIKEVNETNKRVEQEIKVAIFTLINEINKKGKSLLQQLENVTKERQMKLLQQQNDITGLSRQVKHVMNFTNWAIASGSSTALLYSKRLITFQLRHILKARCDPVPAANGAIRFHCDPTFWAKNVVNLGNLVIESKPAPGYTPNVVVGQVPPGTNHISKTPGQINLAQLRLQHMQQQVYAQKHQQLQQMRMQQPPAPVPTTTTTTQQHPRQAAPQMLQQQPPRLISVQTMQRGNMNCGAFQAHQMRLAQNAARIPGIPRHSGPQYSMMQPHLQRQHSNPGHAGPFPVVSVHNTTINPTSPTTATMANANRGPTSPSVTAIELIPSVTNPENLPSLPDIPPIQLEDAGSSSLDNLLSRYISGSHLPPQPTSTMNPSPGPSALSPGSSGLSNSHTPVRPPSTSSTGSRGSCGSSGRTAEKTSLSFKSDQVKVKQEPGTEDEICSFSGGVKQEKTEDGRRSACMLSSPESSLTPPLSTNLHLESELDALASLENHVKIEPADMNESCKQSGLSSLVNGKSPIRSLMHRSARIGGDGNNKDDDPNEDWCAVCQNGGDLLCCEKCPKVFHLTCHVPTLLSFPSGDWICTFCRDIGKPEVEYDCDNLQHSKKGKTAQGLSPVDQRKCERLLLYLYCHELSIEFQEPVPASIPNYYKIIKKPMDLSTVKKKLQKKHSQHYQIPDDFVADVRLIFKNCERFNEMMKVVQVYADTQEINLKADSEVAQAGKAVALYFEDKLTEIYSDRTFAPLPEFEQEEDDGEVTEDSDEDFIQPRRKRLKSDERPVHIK

Protein sequences, listed by entry. Tags and fused reporters are not part of them. Lines headed by an entry give the natural chain unless they say otherwise; changes in a name come on top.
UniProt P19474: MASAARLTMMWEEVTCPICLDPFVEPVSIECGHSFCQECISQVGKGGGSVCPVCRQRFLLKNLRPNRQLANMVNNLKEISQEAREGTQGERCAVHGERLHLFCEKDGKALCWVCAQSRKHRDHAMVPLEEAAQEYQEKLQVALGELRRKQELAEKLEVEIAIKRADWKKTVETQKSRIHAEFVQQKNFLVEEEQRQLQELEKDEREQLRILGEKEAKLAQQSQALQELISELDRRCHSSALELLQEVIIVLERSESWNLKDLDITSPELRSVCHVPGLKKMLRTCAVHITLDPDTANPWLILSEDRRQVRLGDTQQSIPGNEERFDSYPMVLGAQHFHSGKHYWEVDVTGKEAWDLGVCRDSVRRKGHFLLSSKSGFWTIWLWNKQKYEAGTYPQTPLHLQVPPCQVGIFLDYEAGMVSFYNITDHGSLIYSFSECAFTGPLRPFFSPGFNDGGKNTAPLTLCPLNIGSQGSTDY
UniProt P35222: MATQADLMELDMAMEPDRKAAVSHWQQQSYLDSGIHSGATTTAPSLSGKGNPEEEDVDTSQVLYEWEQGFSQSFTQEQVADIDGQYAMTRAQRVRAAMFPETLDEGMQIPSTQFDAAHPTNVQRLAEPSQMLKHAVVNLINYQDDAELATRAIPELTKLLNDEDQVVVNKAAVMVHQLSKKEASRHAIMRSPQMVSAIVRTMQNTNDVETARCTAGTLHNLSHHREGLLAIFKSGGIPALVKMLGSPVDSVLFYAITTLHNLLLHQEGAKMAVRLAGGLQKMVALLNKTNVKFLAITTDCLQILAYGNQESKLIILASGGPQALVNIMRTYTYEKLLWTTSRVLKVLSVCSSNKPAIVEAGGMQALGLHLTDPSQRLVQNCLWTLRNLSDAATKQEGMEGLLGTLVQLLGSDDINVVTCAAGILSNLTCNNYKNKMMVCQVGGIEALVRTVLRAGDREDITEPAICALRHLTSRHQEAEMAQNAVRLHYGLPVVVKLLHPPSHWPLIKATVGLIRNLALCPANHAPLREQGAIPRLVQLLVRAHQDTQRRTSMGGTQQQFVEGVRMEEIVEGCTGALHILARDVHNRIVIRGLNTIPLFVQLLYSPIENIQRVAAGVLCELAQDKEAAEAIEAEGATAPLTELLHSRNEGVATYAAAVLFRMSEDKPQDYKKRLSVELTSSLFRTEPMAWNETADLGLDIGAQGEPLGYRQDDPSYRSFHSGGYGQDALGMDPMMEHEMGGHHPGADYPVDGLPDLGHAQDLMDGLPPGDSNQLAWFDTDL

[3] = target: T2, Flag-TIF1γ (in GBM cells) (UniProt Q9UPN9); assay: co-IP; U87-MG cells transfected with HA-TRIM21 or HA-TRIM21-R443W and/or Flag-TIF1γ; immunoprecipitated with anti-TIF1γ
T2 sequence: T1 sequence

GST-His-TIF1γ [4] = target: T3, GST-His-TIF1γ (UniProt Q9UPN9); assay: pull-down; about 100 µg GST-His-TIF1γ immobilized on 50 µL glutathione agarose; His-tagged TRIM21 added together with His-tagged β-catenin, overnight at 4 °C; immunoblotting; both purified
T3 sequence: T1 sequence

GST-His-TIF1γ [5] = target: T3, GST-His-TIF1γ; assay: pull-down; about 100 µg GST-His-TIF1γ immobilized on 50 µL glutathione agarose; His-tagged β-catenin added, overnight at 4 °C; immunoblotting; only the target purified
[6] = target: β-catenin (in HEK293-T lysate) (UniProt P35222); assay: co-IP; lysates of U87-MG-OETRIM21-Flag (Flag antibodies) and of HEK293-T (β-catenin antibodies); precipitates measured by western blotting
[7] = target: T2, Flag-TIF1γ (in GBM cells); assay: co-IP; nuclear fraction of cells
[8] = target: T2, Flag-TIF1γ (in GBM cells); assay: co-IP; cytoplasmic fraction of cells
[9] = target: T2, Flag-TIF1γ (in GBM cells); assay: co-IP; U87 and U251 cells; ectopic TRIM21 with TIF1γ (Figure 4C); Flag-TIF1γ precipitated with anti-flag (Figure 4D); wash 50 mM Tris HCl, 150 mM NaCl, pH 7.4
[10] = target: TRIM21-Flag (U87-MG-OETRIM21-Flag) (UniProt P19474); assay: co-IP; lysates of U87-MG-OETRIM21-Flag (Flag antibodies) and of HEK293-T (β-catenin antibodies); precipitates measured by western blotting

Substance: HA-TRIM21 (WT, in 293T cells) (from UniProt P19474 1-475)
- binding [2]: binds

Substance: HA-TRIM21 (in GBM cells) (from UniProt P19474 1-475)
- binding [3]: binds

Substance: HA-TRIM21^R443W (from UniProt P19474 1-475)
- binding [3]: no binding

Substance: His-tagged TRIM21 (MCE HY-P71791) (from UniProt P19474 1-475)
- binding (GST-His-TIF1γ [4]): binds

Substance: endogenous TRIM21 (from UniProt P19474 1-475)
- binding [7]: binds
- binding [8]: no binding (condition: in the cytoplasmic fraction)
- binding [9]: binds

Now from value to substance:

- binding [1]: binds
Substance: Flag-β-catenin (in 293T cells) (from UniProt P35222 1-781)

- binding (GST-His-TIF1γ [5]): binds
Substance: His-tagged β-catenin (from UniProt P35222 1-781)

- binding [6]: binds
Substance: TRIM21 (in HEK293-T lysate) (from UniProt P19474 1-475)

- binding [10]: binds
Substance: β-catenin (in U87-MG-OETRIM21-Flag cells) (from UniProt P35222 1-781)

Reference: PMC10526654
